SMILES strings stand for the structures. The campaign covered roughly 39,000 compounds. About 220 (0.56%) showed activity. This is one part of the list.
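Also: static incubation at 37 °C against the wild-type strain, values averaged over two biological replicates.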

This experiment concerns Escherichia coli K-12 BW25113. The experiment in a line: relative growth (OD600 normalised to plate interquartile mean) (fraction); higher = less growth inhibition, active = 0.2 or less. The conditions noted are these: 50 µM; LB; incubation time: overnight (16-24 h).
For `C[C@H]1CN([C@@H](C)CO)C(=O)Cc2cc(NC(=O)CCCN(C)C)ccc2O[C@H]1CN(C)Cc1ccc(Oc2ccccc2)cc1`, the relative growth is inactive: 0.909.

For the compound `Cc1ccc(S(=O)(=O)N[C@H]2CC[C@@H](CC(=O)NCc3ccc(Cl)c(Cl)c3)O[C@@H]2CO)cc1`, the relative growth is inactive: 0.961.

For the compound `COc1ccc(NC(=O)Nc2ccc3c(c2)C(=O)N([C@H](C)CO)C[C@H](C)[C@@H](CN(C)C(=O)Nc2ccc(C(F)(F)F)cc2)OCCCC[C@@H](C)O3)cc1`, the relative growth was inactive: 1.03.

Turning to `C[C@@H]1CN([C@H](C)CO)C(=O)c2cccc(NS(=O)(=O)c3cccs3)c2O[C@@H]1CN(C)S(=O)(=O)c1cccs1`, the relative growth is inactive: 0.993.

On to `C[C@@H]1CN([C@@H](C)CO)C(=O)c2cc(NC(=O)NC3CCCCC3)ccc2O[C@H]1CN(C)S(C)(=O)=O`, for which the relative growth is inactive: 1.

On to `C[C@H]1CN([C@@H](C)CO)C(=O)Cc2cc(NC(=O)Nc3cccc4ccccc34)ccc2O[C@@H]1CN(C)Cc1ccc(Oc2ccccc2)cc1`, for which the relative growth is inactive: 1.02.

As for `C[C@@H]1CCCCO[C@@H](CN(C)Cc2ccc(C(F)(F)F)cc2)[C@H](C)CN([C@@H](C)CO)C(=O)c2cc(NC(=O)Nc3cccc4ccccc34)ccc2O1`, the relative growth is inactive: 1.01.

On to `C#CCOc1cccc2c1CCNC2=O`, for which the relative growth is inactive: 0.96.

`Cc1cn(C[C@H](N)C(=O)O)c(=O)n(Cc2ccsc2C(=O)O)c1=O`: the relative growth was inactive: 1.

`Cc1noc(C)c1S(=O)(=O)N(C)C[C@@H]1Oc2c(NC(=O)C3CCCCC3)cccc2C(=O)N([C@H](C)CO)C[C@@H]1C`: the relative growth was inactive: 0.964.

Consider `COCC#Cc1ccc2c(c1)O[C@@H](CN(C)C(=O)Nc1ccccc1F)[C@H](C)CN([C@H](C)CO)S2(=O)=O`, for which the relative growth is inactive: 1.

Turning to `CCNC(=O)C[C@H]1C=C[C@@H](NC(=O)C2CC2)[C@H](CO)O1`, the relative growth is inactive: 0.982.

As for `C[C@@H]1CCCCO[C@@H](CN(C)CC2CCCCC2)[C@H](C)CN([C@@H](C)CO)C(=O)c2cc(NC(=O)Cc3ccccc3)ccc2O1`, the relative growth was inactive: 1.01.

For the compound `C[C@H]1CCCCO[C@@H](CN(C)Cc2ccccc2)[C@@H](C)CN([C@@H](C)CO)C(=O)c2cc(NS(=O)(=O)c3cccs3)ccc2O1`, the relative growth is inactive: 0.993.

As to `C[C@H](CO)N1C[C@H](C)[C@H](CN(C)C(=O)Nc2ccc(N3CCN(C)CC3)cc2)OCc2cnnn2CCCC1=O`, the relative growth was inactive: 0.983.

As to `CCOC(=O)[C@H]1CNC(=S)N[C@@]1(C)O`, the relative growth was inactive: 0.935.

On to `CN1C(=O)c2cc(NC(=O)c3cnccn3)ccc2OC[C@@H]2O[C@H](CC(=O)NCC3CCCCC3)CC[C@H]21`, for which the relative growth is inactive: 0.993.

`CC(=O)NCC(=O)N1Cc2nccn2C[C@H](Cn2nc(C)nc2C)C1`: the relative growth was inactive: 0.995.

With `C[C@@H]1CN([C@@H](C)CO)C(=O)c2cc(NC(=O)Cn3cnnn3)ccc2O[C@@H]1CN(C)S(=O)(=O)c1ccc(F)cc1`, the relative growth is inactive: 1.04.

`I.[KH]`: the relative growth was inactive: 1.

With `COc1ccc(NC(=O)Nc2ccc3c(c2)C(=O)N([C@H](C)CO)C[C@H](C)[C@H](CN(C)C(=O)Nc2ccc(OC)cc2)OCCCC[C@@H](C)O3)cc1`, the relative growth was inactive: 1.01.

`Oc1cc(O)c2c(c1)OC(c1cc(O)c(O)c(O)c1)C(O)C2` (configuration not stated): the relative growth is inactive: 1.03.

In the case of `COc1ccc(S(=O)(=O)Nc2ccc3c(c2)C(=O)N([C@@H](C)CO)C[C@@H](C)[C@H](CN(C)S(=O)(=O)c2ccc(OC)cc2)O3)cc1`, the relative growth is inactive: 1.03.

Regarding `COc1ccccc1-c1ccc2c(c1)O[C@H](CN(C)S(=O)(=O)c1ccccc1)[C@@H](C)CN([C@H](C)CO)S2(=O)=O`, the relative growth was inactive: 1.05.

Turning to `Cn1nccc1-c1cccc(CN)c1`, the relative growth was inactive: 1.01.

As to `Cc1ccc(S(=O)(=O)Nc2ccc3c(c2)C(=O)N([C@@H](C)CO)C[C@H](C)[C@@H](CN(C)Cc2ccc(C(=O)O)cc2)OCCCC[C@H](C)O3)cc1`, the relative growth was inactive: 1.03.

On to `COc1ccc(S(=O)(=O)Nc2ccc3c(c2)CC(=O)N([C@H](C)CO)C[C@H](C)[C@H](CN(C)S(=O)(=O)c2ccc(C)cc2)O3)cc1`, for which the relative growth is inactive: 1.03.

`C[C@H](CO)N1C[C@H](C)[C@H](CN(C)Cc2ccc(Oc3ccccc3)cc2)Oc2c(NC(=O)Nc3ccc(F)cc3)cccc2C1=O`: the relative growth is inactive: 0.947.

Take `Cc1ccc(OC(=O)N(C)C[C@H]2OCc3ccccc3-c3ccccc3C(=O)N([C@@H](C)CO)C[C@@H]2C)cc1`: the relative growth is inactive: 0.993.

Turning to `C[C@@H]1CN([C@@H](C)CO)C(=O)c2cc(NS(=O)(=O)c3ccc(F)cc3)ccc2O[C@@H](C)CCCCO[C@H]1CN(C)C(=O)c1ccccc1`, the relative growth was inactive: 1.02.

As for `O=C(NC[C@H]1Cn2nncc2CO1)c1ccc[nH]1`, the relative growth was inactive: 1.02.

As for `O=C(O)C[C@H]1CC[C@H]2[C@@H](COC[C@@H](O)CN2S(=O)(=O)c2ccc(F)cc2)O1`, the relative growth was inactive: 0.952.

As for `CC(C)n1nnc(CC(=O)NN)n1`, the relative growth was inactive: 0.977.

In the case of `COc1cc(-c2coc3cc(OCc4ccccc4)c(OC)c(O)c3c2=O)cc(OCc2ccccc2)c1OC`, the relative growth was inactive: 1.05.

`NC1CCCCC1N.O=C1[O][Pt][O]C1=O` (configuration not stated): the relative growth is inactive: 0.993.

Turning to `COc1ccc(NC(=O)N(C)C[C@@H]2Oc3c(NC(=O)Nc4ccc(C(F)(F)F)cc4)cccc3C(=O)N([C@H](C)CO)C[C@@H]2C)cc1`, the relative growth was inactive: 0.955.

`C[C@H]1CN([C@@H](C)CO)C(=O)CCCn2cc(nn2)CO[C@@H]1CN(C)S(=O)(=O)c1ccc(-c2ccccc2)cc1`: the relative growth was inactive: 0.985.

As to `O=C(C[C@@H]1CC[C@@H]2[C@H](COC[C@@H](O)CN2S(=O)(=O)c2cccc(Cl)c2)O1)NCc1ccncn1`, the relative growth was inactive: 0.991.

For `COc1ccc(S(=O)(=O)N(C)C[C@@H]2Oc3cc(C#CC4CC4)ccc3S(=O)(=O)N([C@@H](C)CO)C[C@H]2C)cc1`, the relative growth was inactive: 0.998.

With `CN(C)CC(=O)N[C@@H]1CC[C@H](CC(=O)NCCN2CCCCC2)O[C@H]1CO`, the relative growth is inactive: 1.03.

Take `C[C@@H]1CN([C@H](C)CO)C(=O)c2cccc(NC(=O)Nc3ccc(F)cc3)c2O[C@H]1CN(C)CC1CCCCC1`: the relative growth was inactive: 0.898.

With `C[C@@H]1CN([C@H](C)CO)C(=O)c2cc(NC(=O)Cn3cnnn3)ccc2O[C@@H]1CN(C)S(=O)(=O)c1ccc(F)cc1`, the relative growth was inactive: 0.978.

On to `CC(C)NC(=O)Nc1ccc2c(c1)CC(=O)N([C@H](C)CO)C[C@H](C)[C@H](CN(C)S(=O)(=O)c1cn(C)cn1)O2`, for which the relative growth was inactive: 1.02.

Take `CC(C)NC(=O)N(C)C[C@H]1OCc2cn(nn2)CCCC(=O)N([C@H](C)CO)C[C@@H]1C`: the relative growth was inactive: 1.03.

For the compound `C=CCOC(=O)N(C)C[C@@H]1Oc2ccc(NC(=O)OCC3c4ccccc4-c4ccccc43)cc2C(=O)N([C@H](C)CO)C[C@H]1C`, the relative growth was inactive: 1.01.

Regarding `C[C@H]1CN([C@@H](C)CO)C(=O)Cc2cc(NC(=O)Cc3ccccc3)ccc2O[C@@H]1CN(C)C(=O)Nc1ccc(C(F)(F)F)cc1`, the relative growth is inactive: 1.04.

In the case of `Cc1cc(=O)nc2[nH][nH]c(=S)n12`, the relative growth was inactive: 0.993.

Take `CC(C)(O)c1cn(-c2ccc(-c3cc(F)c(CO)c(S(C)(=O)=O)c3)cc2F)c(C(C)(C)c2c(Cl)cccc2Cl)n1`: the relative growth was inactive: 1.03.

As for `Cc1ccc(S(=O)(=O)N(C)C[C@H]2Oc3c(NC(=O)NC(C)C)cccc3C(=O)N([C@@H](C)CO)C[C@@H]2C)cc1`, the relative growth is inactive: 1.01.

For `C[C@H](CO)N1C[C@H](C)[C@@H](CN(C)S(=O)(=O)c2cn(C)cn2)Oc2ccc(NC(=O)CCN3CCOCC3)cc2C1=O`, the relative growth is inactive: 0.95.

In the case of `C[C@@H]1CN([C@@H](C)CO)C(=O)c2cc(Br)cnc2O[C@@H]1CN(C)S(=O)(=O)c1ccc(F)cc1`, the relative growth was inactive: 0.971.

For the compound `C[C@@H]1CCCCO[C@@H](CN(C)C(=O)NC2CCCCC2)[C@H](C)CN([C@H](C)CO)C(=O)c2cc(NC(=O)NC3CCCCC3)ccc2O1`, the relative growth was inactive: 1.01.

Turning to `CC(C)C#Cc1ccc2c(c1)O[C@H](CN(C)S(=O)(=O)c1cn(C)cn1)[C@H](C)CN([C@@H](C)CO)S2(=O)=O`, the relative growth is inactive: 1.02.

In the case of `C[C@H]1CN([C@@H](C)CO)C(=O)c2c(c3ccccc3n2C)-c2ccccc2CO[C@H]1CN(C)C(=O)c1ccc(F)cc1`, the relative growth was inactive: 1.02.

In the case of `CN(C)CCN1C[C@H]2OCCN(Cc3cnn(C)c3)[C@H]2C1`, the relative growth was inactive: 1.01.

In the case of `CC(=O)OCC(=O)C12OC3(CCCC3)OC1CC1C3CCC4=CC(=O)C=CC4(C)C3(F)C(O)CC12C` (configuration not stated), the relative growth was inactive: 0.893.

Regarding `C[C@@H]1CCCCO[C@H](CN(C)Cc2ccc3c(c2)OCO3)[C@@H](C)CN([C@@H](C)CO)C(=O)c2cc(NC(=O)Nc3ccc(C(F)(F)F)cc3)ccc2O1`, the relative growth is inactive: 1.02.

Turning to `COc1ccc(NC(=O)N(C)C[C@H]2OCCCC[C@@H](C)Oc3ccc(NC(=O)NC4CCCCC4)cc3C(=O)N([C@H](C)CO)C[C@@H]2C)cc1`, the relative growth was inactive: 1.03.

On to `C[C@@H]1CN([C@H](C)CO)C(=O)c2cc(NC(=O)C3CCCCC3)ccc2O[C@H]1CN(C)S(=O)(=O)c1cn(C)cn1`, for which the relative growth was inactive: 1.01.

As for `C[C@@H]1CCCCO[C@@H](CN(C)S(=O)(=O)c2cn(C)cn2)[C@@H](C)CN([C@@H](C)CO)C(=O)c2cc(NS(=O)(=O)c3ccccc3)ccc2O1`, the relative growth is inactive: 1.01.

As for `C[C@H](CO)N1C[C@H](C)[C@H](CN(C)Cc2ccc3c(c2)OCO3)OCCCC[C@H](C)Oc2ccc(NC(=O)Nc3ccc(F)cc3)cc2C1=O`, the relative growth is inactive: 0.996.

In the case of `C[C@@H]1CCCCO[C@@H](CN(C)S(=O)(=O)c2ccc(F)cc2)[C@H](C)CN([C@H](C)CO)C(=O)c2cc(NC(=O)Nc3cccc4ccccc34)ccc2O1`, the relative growth was inactive: 1.05.

Source of the values: the supplement of paper PMC9446081.
